Measured values: PubChem BioAssay AID360 (National Center for Advancing Translational Sciences (NCATS), 2006)
Among all 48,000 compounds or so, about 550 (1.1%) were called active. Inconclusive results (about 4%) are left out. Rule as the data show it: active = potency below about 15 µM; inconclusive = mostly about 16 µM to 33 µM; inactive = weaker than that. Some of the results follow.

What follows are molecules tested against Lysosomal acid glucosylceramidase (Homo sapiens) (UniProt P04062) (assay: Glucocerebrosidase). Details: purified enzyme, resorufin glucoside fluorescence (screen aimed at inhibitors), 20 min.
Sequence of UniProt P04062 (P04062 whole entry, looked up): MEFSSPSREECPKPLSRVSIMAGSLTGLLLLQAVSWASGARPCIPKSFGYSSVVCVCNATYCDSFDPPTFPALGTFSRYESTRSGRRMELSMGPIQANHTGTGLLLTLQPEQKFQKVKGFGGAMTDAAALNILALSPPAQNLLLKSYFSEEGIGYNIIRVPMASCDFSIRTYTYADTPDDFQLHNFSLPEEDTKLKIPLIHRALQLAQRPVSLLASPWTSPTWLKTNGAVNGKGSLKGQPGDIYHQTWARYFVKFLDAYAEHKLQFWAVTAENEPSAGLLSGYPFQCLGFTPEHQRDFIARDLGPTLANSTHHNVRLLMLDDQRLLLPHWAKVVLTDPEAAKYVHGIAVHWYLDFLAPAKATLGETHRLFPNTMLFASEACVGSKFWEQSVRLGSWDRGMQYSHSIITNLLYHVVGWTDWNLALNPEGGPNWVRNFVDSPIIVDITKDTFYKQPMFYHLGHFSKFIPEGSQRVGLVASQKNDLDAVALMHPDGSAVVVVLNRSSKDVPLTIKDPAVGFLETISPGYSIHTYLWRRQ
In short: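 Normal human glucocerebrosidase (0.2 nM final) was assayed with resorufin β-D-glucopyranoside (30 uM final) in 50mM citric acid/KH2PO4, 10mM sodium taurocholate, 0.01% tween-20, pH 5.9. Compounds were titrated; fluorescence (Ex 548, Em 600) read after 20 min at RT.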
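Also: the screen sought inhibitors.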
Potency is read from the fitted curve at half-maximal effect.

Potency, inactive:
O=C(COc1ccc(Cl)cc1)OCC(=O)N1CCCC1 > 76.9 µM
CCN(CC)c1nc(-c2nn[nH]n2)nc(N(CC)CC)n1 > 76.9 µM
CCOC(=O)Cc1csc(NC(=O)c2ccoc2C)n1 > 76.9 µM
CCn1c(SCC(=O)Nc2cc(OC)c(OC)c(OC)c2)nnc1-c1cccs1 > 76.9 µM
CS/C(=N\S(=O)(=O)c1cccs1)Nc1ccc(N2CCOCC2)cc1 > 76.9 µM
Cc1coc(C)c1C(=O)CC1(O)C(=O)Nc2cc(Cl)cc(Cl)c21 (configuration not stated) > 76.9 µM
ONC=Nc1cccc2nonc12 > 76.9 µM
CCN(CC(=O)NCc1cccs1)S(=O)(=O)c1cccc(C(C)=O)c1 > 76.9 µM
COC1(OC)N=C(N)C2(C#N)C(c3ccc(C)cc3)C12C#N (configuration not stated) > 76.9 µM
Cn1cc(Cl)c(-c2nc3ccccc3[nH]2)n1 > 76.9 µM
COC(=O)c1ccccc1NC1OC(=O)c2ccccc21 (configuration not stated) > 76.9 µM
N=C1C(c2ccccc2)=C(O)CN1c1ccccc1N1CCOCC1 > 76.9 µM
CS(=O)(=O)N(CC(=O)Nc1ccccc1C(=O)N1CCOCC1)c1ccc2c(c1)OCO2 > 76.9 µM
CCN(CC)C(=O)C1CC(c2ccc(OC)cc2)=NO1 (configuration not stated) > 76.9 µM
COc1ccccc1C1CC(c2ccc(Cl)cc2)Nc2ncnn21 (configuration not stated) > 76.9 µM
CC(=O)Nc1ccc(S(=O)(=O)N2CCC(NC(C)=O)(c3cccc(F)c3)CC2)cc1 > 76.9 µM
O=C(CN1C(=O)CCS(=O)(=O)c2ccccc21)NCc1ccccc1 > 76.9 µM
CCOC(=O)C(C)Sc1ccc2nnc(-c3ccc(F)cc3)n2n1 (configuration not stated) > 76.9 µM
COc1ccc(C(O)c2nc3ccccc3s2)cc1 (configuration not stated) > 76.9 µM
CCN(CC)c1ccc(NC(=O)c2ccco2)c(C)c1 > 76.9 µM
O=C(O)c1cccc(COc2ccccc2Cl)c1 > 76.9 µM
CN1CCN(CC(=O)Nc2ccc(Cl)cc2Cl)CC1 > 76.9 µM
COc1ccccc1Oc1coc2cc(OC(=O)N3CCOCC3)ccc2c1=O > 76.9 µM
COc1cccc(C(=O)NCc2nnc(SCC(=O)Nc3nccs3)n2-c2cccc(C)c2)c1 > 76.9 µM
CC(=O)C1=C(O)C(=O)N(Cc2ccco2)C1c1ccc2c(c1)OCO2 (configuration not stated) > 76.9 µM
CN(C)C(CNC(=O)c1cccnc1Sc1ccccc1)c1ccco1 (configuration not stated) > 76.9 µM
CC(=O)c1cccc(NC(=O)N2CCCc3ccccc32)c1 > 76.9 µM
O=C(OCC1COc2ccccc2O1)c1c(F)cccc1F (configuration not stated) > 76.9 µM
CCc1ccccc1NC(=O)CSc1nnc([C@@H]2CCCN2C(=O)OC(C)(C)C)o1 > 76.9 µM
CCCCSc1nnc(-c2ccc(NC(=O)CC)cc2)n1C > 76.9 µM
CC(=O)N(Cc1cccnc1)Cc1cc2ccc(C)cc2[nH]c1=O > 76.9 µM
CSc1nnnn1-c1ccc(C(=O)OCC(=O)N2CCOCC2)cc1 > 76.9 µM
CC1Oc2ccccc2N(CC(=O)N2CCc3ccccc32)C1=O (configuration not stated) > 76.9 µM
CCn1c(=O)cc(OCC(=O)N2CCN(c3cccc(C(F)(F)F)c3)CC2)c2ccccc21 > 76.9 µM
COc1ccccc1C1NC(=O)NC(C)=C1C(C)=O (configuration not stated) > 76.9 µM
CC(C)n1nc(C(=O)NCCc2ccc(S(N)(=O)=O)cc2)c2ccccc2c1=O > 76.9 µM
Cc1nn(-c2ccccc2)c(Cl)c1C(=O)N1CCN(c2ncnc3c2cnn3-c2ccccc2)CC1 > 76.9 µM
Brc1ccc(-c2nnc3sc(CN4CCN(c5ccccc5)CC4)cn23)cc1 > 76.9 µM
CCN(Cc1cc2ccccc2[nH]c1=O)C(=O)c1cccnc1 > 76.9 µM
Cc1cccc(NC(=O)N2CCC(NC(=O)c3ccccc3C)CC2)c1 > 76.9 µM
O=C(NC1CC1)c1ccc(-c2nc3ccccc3s2)s1 > 76.9 µM
Cc1ccc(C(=O)c2coc3ccc(OCC(=O)O)cc23)cc1 > 76.9 µM
Cc1nnc(SCc2ccon2)n1-c1ccccc1 > 76.9 µM
Cn1c(NCC2CCCO2)nc2c1c(=O)n(Cc1ccccc1)c(=O)n2C (configuration not stated) > 76.9 µM
COc1ccccc1NC(=O)CSc1nnnn1-c1ccc2c(c1)OCO2 > 76.9 µM
c1ccc2c(c1)NC(CN1CCOCC1)CO2 (configuration not stated) > 76.9 µM
COc1cccc(N2C(=O)C3CCCN3C2c2ccc(F)cc2)c1 (configuration not stated) > 76.9 µM
Cc1cc(C(=O)CSc2nncs2)c(C)n1-c1ccc2c(c1)OCO2 > 76.9 µM
CC(NC(=O)Cc1cccs1)c1ccc2c(c1)OCO2 (configuration not stated) > 76.9 µM
O=C(c1cnn2c(C(F)F)cc(C3CC3)nc12)N1CCc2ccccc2C1 > 76.9 µM
NC(=O)C1(N2CCCCC2)CCN(C(=O)CSc2nc3ccccc3[nH]2)CC1 > 76.9 µM
Cc1ccnc(SCCn2c(Br)nc3c2c(=O)n(C)c(=O)n3C)n1 > 76.9 µM
Cc1cc(-c2ccccc2)c2c3c(cn2n1)c(=O)n(C)c(=O)n3C > 76.9 µM
CCOc1cc(-n2cnnn2)c(OCC)cc1NC(=O)c1cnccn1 > 76.9 µM
CCOC(=O)c1[nH]c(C)c(C(=O)NCCc2ccc(OC)cc2)c1C > 76.9 µM
OC(Cn1ccnc1)c1ccc(Cl)cc1Cl (configuration not stated) > 76.9 µM
COCC(=O)N(C)C1(c2nnnn2CCOC(=O)Nc2cccc3ccccc23)CCCC1 > 76.9 µM
CCCc1cc(=O)[nH]c(NCc2ccc(Cl)cc2)n1 > 76.9 µM
COC(=O)c1cc(C)sc1NC(=O)c1cccnc1 > 76.9 µM
O=C(C1CCN(S(=O)(=O)c2ccc(F)cc2)CC1)N1CC=C(c2ccccc2)CC1 > 76.9 µM
CCCCC(=O)Nc1cc(C)c2c(=O)oc3ccccc3c2n1 > 76.9 µM
COC(C)(C)[C@]12CC(O)(c3ccccc3)ON1[C@H]1CCCCC1N2O (some centres not stated) > 76.9 µM
COc1ccc(NC(=O)c2cc(C(C)C)on2)cc1OC > 76.9 µM
CSc1ccc(S(=O)(=O)NC2CCCCCC2)cc1
CCOC(=O)Cc1csc(NC(=O)c2csc3c2CCCC3)n1 > 76.9 µM
O=C(O)c1cc(-c2ccccc2)n(-c2ccccc2C(=O)O)n1 > 76.9 µM
Cc1ccc(S(=O)(=O)n2nc(OC(=O)c3cccs3)cc2N)cc1 > 76.9 µM
CCCn1c(CCC(=O)O)ccc1-c1ccc(F)cc1 > 76.9 µM
O=S(=O)(c1ccccc1)N1CCN(c2ncnc3sc(-c4ccccc4)cc23)CC1 > 76.9 µM
O=C(O)c1ccc(COc2c(F)c(F)cc(F)c2F)o1 > 76.9 µM
CN(C(=O)COc1ccccc1)c1nnc(-c2ccncc2)s1 > 76.9 µM
c1ccc(-n2nnc3cnccc32)cc1 > 76.9 µM
Cc1ccc(NC(=O)c2nnn(-c3cc(C)cc(C)c3)c2N)cc1 > 76.9 µM
CC(NC(=O)Nc1ccccn1)N1C(=O)C2C3C=CC(C3)C2C1=O (configuration not stated) > 76.9 µM
COc1ccc(CNc2nc3c(c(=O)n(Cc4ccc(Cl)cc4)c(=O)n3C)n2C)cc1 > 76.9 µM
CCCCNC(=O)c1c(C)cc(=O)oc1C > 76.9 µM
CN(C)S(=O)(=O)c1cccc(C(=O)N2CCN(Cc3ccccc3)CC2)c1 > 76.9 µM
COc1cc(NC(=O)c2cccs2)c(C(=O)OCC(=O)NCc2ccco2)cc1OC > 76.9 µM
O=C(O)C1C2C=CC(C2)C1C(=O)Nc1ccc(C(=O)N2CCCCC2)c(Cl)c1 (configuration not stated) > 76.9 µM
CCOc1ccc(NC2=NCC(=O)N2CCc2ccccc2)cc1 > 76.9 µM
Cc1ccc2c(c1)cc(CN(Cc1cccs1)C(=O)c1ccco1)c1nnnn12 > 76.9 µM
O=C(Nc1cnn(Cc2ccc(F)cc2)c1)c1cc2nc(-c3ccco3)cc(C(F)(F)F)n2n1 > 76.9 µM
Cn1c(-c2ccc(F)cc2)cnc1SCC(=O)N1CCCCC1 > 76.9 µM
CC(C)CCNC(=O)C1CCN(c2nc3ccccc3o2)CC1 > 76.9 µM
COc1ccccc1CNC(=O)CCS(=O)(=O)c1ccc2c(c1)CCCN2C(C)=O > 76.9 µM
Clc1ccccc1Cn1nnc(-c2cccs2)n1 > 76.9 µM
Cc1occc1C(=O)Nc1cccc(Cn2cccn2)c1 > 76.9 µM
c1ccc(CCn2nnnc2CN2CCCc3ccccc32)cc1 > 76.9 µM
Cc1ccc2c(CC(=O)NC3=NCCS3)coc2c1 > 76.9 µM
Cc1cc(C)cc(-n2nnc(C(=O)NCc3ccc4c(c3)OCO4)c2N)c1 > 76.9 µM
CCOC(=O)CNC(=O)CSc1nc(NCc2ccccc2)nc(N(C)C)n1 > 76.9 µM
CCOC(=O)c1c(C)noc1CP(=O)(c1ccccc1)c1ccccc1 > 76.9 µM
